# Reference: the supplement of paper PMC8728848
# This is one part of the list.
# B1: Codakine (Codakia orbicularis), Q3KVL7_9BIVA (protein)
# chain: MKILVAVFLVLVVVGTAAAGCPDGWTQFLDLCYIYQSAKASWASAQSSCQALGGILAEPDTACENEVLIHMCRENGDAGSFGPWLGGQKVGGAWQWSSSGAAFDYLRWGPNEPNNSGGNEDCLHYNWLSWNDLRCHYQASYLCQRAAE
# Columns and labels:
# Experiment in all cases: glycan array binding signal (z-score within array); higher = stronger binding
# Conditions in all cases: glycan notation: IUPAC condensed, linker removed
# GlcNAc(b1-6)GalNAc = molecular target: GlcNAc(b1-6)GalNAc
# How it was run: (§1)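 The binding signal is a Z-score computed within each array and averaged over linkers. Arrays of the same protein sequence at different concentrations or buffers were also averaged together. Data originate from 3228 arrays in the Consortium for Functional Glycomics database, kept only where the protein sequence was available.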
# GlcNAc3Prop(b1-4)GlcNAc = molecular target: GlcNAc3Prop(b1-4)GlcNAc
# How it was run: as §1
# Kdn(a2-3)Gal(b1-3)GlcNAc = molecular target: Kdn(a2-3)Gal(b1-3)GlcNAc
# How it was run: as §1
# Kdn(a2-3)Gal(b1-4)GlcNAc = molecular target: Kdn(a2-3)Gal(b1-4)GlcNAc
# How it was run: as §1
# [1] = molecular target: Man(a1-2)Man(a1-2)Man(a1-3)Man
# How it was run: as §1
# [2] = molecular target: Man(a1-2)Man(a1-2)Man(a1-6)[Man(a1-3)]Man
# How it was run: as §1
# Man(a1-2)Man(a1-3)Man = molecular target: Man(a1-2)Man(a1-3)Man
# How it was run: as §1
# [3] = molecular target: Man(a1-2)Man(a1-3)[Man(a1-2)Man(a1-6)]Man
# How it was run: as §1
# [4] = molecular target: Man(a1-2)Man(a1-3)[Man(a1-2)Man(a1-6)]Man(a1-6)[Man(a1-2)Man(a1-2)Man(a1-3)]Man
# How it was run: as §1
# [5] = molecular target: Man(a1-2)Man(a1-3)[Man(a1-2)Man(a1-6)]Man(a1-6)[Man(a1-2)Man(a1-2)Man(a1-3)]Man(b1-4)GlcNAc(b1-4)GlcNAc
# How it was run: as §1
# [6] = molecular target: Man(a1-2)Man(a1-3)[Man(a1-6)]Man(a1-6)[Man(a1-2)Man(a1-3)]Man(b1-4)GlcNAc(b1-4)GlcNAc
# How it was run: as §1
# [7] = molecular target: Man(a1-2)Man(a1-6)[Man(a1-3)]Man(a1-6)[Man(a1-2)Man(a1-2)Man(a1-3)]Man
# How it was run: as §1
# [8] = molecular target: Man(a1-2)Man(a1-6)[Man(a1-3)]Man(a1-6)[Man(a1-2)Man(a1-2)Man(a1-3)]Man(b1-4)GlcNAc(b1-4)GlcNAc
# How it was run: as §1
# Man(a1-3)[Man(a1-6)]Man = molecular target: Man(a1-3)[Man(a1-6)]Man
# How it was run: as §1
# [9] = molecular target: Man(a1-3)[Man(a1-6)]Man(a1-6)[Man(a1-2)Man(a1-3)]Man(b1-4)GlcNAc(b1-4)GlcNAc
# How it was run: as §1
# [10] = molecular target: Man(a1-3)[Man(a1-6)]Man(a1-6)[Man(a1-3)]Man
# How it was run: as §1
# [11] = molecular target: Man(a1-3)[Man(a1-6)]Man(a1-6)[Man(a1-3)]Man(b1-4)GlcNAc(b1-4)GlcNAc
# How it was run: as §1
# [12] = molecular target: Man(a1-3)[Man(a1-6)]Man(b1-4)GlcNAc(b1-4)GlcNAc
# How it was run: as §1
# Man(a1-6)Man = molecular target: Man(a1-6)Man
# How it was run: as §1
# Man(b1-4)GlcNAc = molecular target: Man(b1-4)GlcNAc
# How it was run: as §1
# Neu5Ac(a2-3)Gal = molecular target: Neu5Ac(a2-3)Gal
# How it was run: as §1
# [13] = molecular target: Neu5Ac(a2-3)Gal(b1-3)GalNAc
# How it was run: as §1
# [14] = molecular target: Neu5Ac(a2-3)Gal(b1-3)GalNAc(b1-3)Gal(a1-4)Gal(b1-4)Glc
# How it was run: as §1
# [15] = molecular target: Neu5Ac(a2-3)Gal(b1-3)GalNAc(b1-3)Gal(b1-4)GlcNAc
# How it was run: as §1
# [16] = molecular target: Neu5Ac(a2-3)Gal(b1-3)GalNAc(b1-4)[Neu5Ac(a2-3)]Gal(b1-4)Glc
# How it was run: as §1
# [17] = molecular target: Neu5Ac(a2-3)Gal(b1-3)GalNAc6S
# How it was run: as §1
# [18] = molecular target: Neu5Ac(a2-3)Gal(b1-3)GlcNAc
# How it was run: as §1
# [19] = molecular target: Neu5Ac(a2-3)Gal(b1-3)GlcNAc(b1-3)Gal(b1-3)GlcNAc
# How it was run: as §1
# [20] = molecular target: Neu5Ac(a2-3)Gal(b1-3)GlcNAc6S
# How it was run: as §1
# [21] = molecular target: Neu5Ac(a2-3)Gal(b1-3)[Fuc(a1-4)]GlcNAc
# How it was run: as §1
# [22] = molecular target: Neu5Ac(a2-3)Gal(b1-3)[Fuc(a1-4)]GlcNAc(b1-3)Gal(b1-4)[Fuc(a1-3)]GlcNAc
# How it was run: as §1
# [23] = molecular target: Neu5Ac(a2-3)Gal(b1-3)[Neu5Ac(a2-3)Gal(b1-4)]GlcNAc
# How it was run: as §1
# [24] = molecular target: Neu5Ac(a2-3)Gal(b1-3)[Neu5Ac(a2-6)]GalNAc
# How it was run: as §1
# Neu5Ac(a2-3)Gal(b1-4)Glc = molecular target: Neu5Ac(a2-3)Gal(b1-4)Glc
# How it was run: as §1
# [25] = molecular target: Neu5Ac(a2-3)Gal(b1-4)GlcNAc
# How it was run: as §1
# [26] = molecular target: Neu5Ac(a2-3)Gal(b1-4)GlcNAc(b1-2)Man(a1-3)[GlcNAc(b1-2)Man(b1-4)GlcNAc(b1-2)Man(a1-6)]Man(b1-4)GlcNAc(b1-4)GlcNAc
# How it was run: as §1
# [27] = molecular target: Neu5Ac(a2-3)Gal(b1-4)GlcNAc(b1-2)Man(a1-3)[Neu5Ac(a2-6)Gal(b1-4)GlcNAc(b1-2)Man(a1-6)]Man(b1-4)GlcNAc(b1-4)GlcNAc
# How it was run: as §1
# [28] = molecular target: Neu5Ac(a2-3)Gal(b1-4)GlcNAc(b1-3)Gal(b1-3)GlcNAc
# How it was run: as §1
# [29] = molecular target: Neu5Ac(a2-3)Gal(b1-4)GlcNAc(b1-3)Gal(b1-4)GlcNAc
# How it was run: as §1
# [30] = molecular target: Neu5Ac(a2-3)Gal(b1-4)GlcNAc(b1-3)Gal(b1-4)GlcNAc(b1-3)Gal(b1-4)GlcNAc
# How it was run: as §1
# [31] = molecular target: Neu5Ac(a2-3)Gal(b1-4)GlcNAc(b1-3)Gal(b1-4)[Fuc(a1-3)]GlcNAc
# How it was run: as §1
# [32] = molecular target: Neu5Ac(a2-3)Gal(b1-4)GlcNAc(b1-6)[Gal(b1-3)]GalNAc
# How it was run: as §1
# [33] = molecular target: Neu5Ac(a2-3)Gal(b1-4)GlcNAc(b1-6)[Neu5Ac(a2-3)Gal(b1-3)]GalNAc
# How it was run: as §1
# [34] = molecular target: Neu5Ac(a2-3)Gal(b1-4)GlcNAc6S
# How it was run: as §1
binder,measurement,setting,value
B1,glycan array binding signal (z-score),GlcNAc(b1-6)GalNAc,-0.313
same,glycan array binding signal (z-score),GlcNAc3Prop(b1-4)GlcNAc,-0.313
same,glycan array binding signal (z-score),Kdn(a2-3)Gal(b1-3)GlcNAc,-0.323
same,glycan array binding signal (z-score),Kdn(a2-3)Gal(b1-4)GlcNAc,-0.348
same,glycan array binding signal (z-score),[1],-0.334
same,glycan array binding signal (z-score),[2],0.492
same,glycan array binding signal (z-score),Man(a1-2)Man(a1-3)Man,-0.31
same,glycan array binding signal (z-score),[3],0.573
same,glycan array binding signal (z-score),[4],0.651
same,glycan array binding signal (z-score),[5],0.264
same,glycan array binding signal (z-score),[6],0.554
same,glycan array binding signal (z-score),[7],0.392
same,glycan array binding signal (z-score),[8],0.568
same,glycan array binding signal (z-score),Man(a1-3)[Man(a1-6)]Man,0.669
same,glycan array binding signal (z-score),[9],0.779
same,glycan array binding signal (z-score),[10],-0.043
same,glycan array binding signal (z-score),[11],0.708
same,glycan array binding signal (z-score),[12],4.3
same,glycan array binding signal (z-score),Man(a1-6)Man,0.449
same,glycan array binding signal (z-score),Man(b1-4)GlcNAc,-0.156
same,glycan array binding signal (z-score),Neu5Ac(a2-3)Gal,-0.312
same,glycan array binding signal (z-score),[13],-0.216
same,glycan array binding signal (z-score),[14],-0.317
same,glycan array binding signal (z-score),[15],-0.267
same,glycan array binding signal (z-score),[16],-0.118
same,glycan array binding signal (z-score),[17],-0.162
same,glycan array binding signal (z-score),[18],-0.353
same,glycan array binding signal (z-score),[19],-0.367
same,glycan array binding signal (z-score),[20],-0.08
same,glycan array binding signal (z-score),[21],-0.34
same,glycan array binding signal (z-score),[22],-0.227
same,glycan array binding signal (z-score),[23],-0.333
same,glycan array binding signal (z-score),[24],-0.148
same,glycan array binding signal (z-score),Neu5Ac(a2-3)Gal(b1-4)Glc,-0.133
same,glycan array binding signal (z-score),[25],-0.28
same,glycan array binding signal (z-score),[26],4.82
same,glycan array binding signal (z-score),[27],4.57
same,glycan array binding signal (z-score),[28],-0.286
same,glycan array binding signal (z-score),[29],-0.181
same,glycan array binding signal (z-score),[30],-0.305
same,glycan array binding signal (z-score),[31],-0.293
same,glycan array binding signal (z-score),[32],-0.241
same,glycan array binding signal (z-score),[33],-0.414
same,glycan array binding signal (z-score),[34],-0.198
